Drawing on article PMC9911399, “Two distinct binding modes provide the RNA-binding protein RbFox with extraordinary sequence specificity”, this text covers binding signal for 31 molecules.

Substitutions are numbered along the chain they refer to; changes in the protein carry UniProt numbers. Some of the results follow.

To fix the notation:
B1: GUUCGUC (DNA:RNA)
RNA: GGGAGACCGGAAUUCAGAUUGUCCGUUCGUCUUAAAUCCCGUCGUAGCCACCA
DNA 1: CAATCTGAATTCCGGTCTCCC
DNA 2: TGGTGGCTACGACGGGATT
B2: CGUUCCU (DNA:RNA)
RNA: B1 RNA with G25C, U26G, C28U, G29C, U30C, C31U
DNA 1: CAATCTGAATTCCGGTCTCCC
DNA 2: TGGTGGCTACGACGGGATT
B3: GCGCGGA (DNA:RNA)
RNA: B1 RNA with U26C, U27G, U30G, C31A
DNA 1: CAATCTGAATTCCGGTCTCCC
DNA 2: TGGTGGCTACGACGGGATT
B4: CAAACGC (DNA:RNA)
RNA: B1 RNA with G25C, U26A, U27A, C28A, G29C, U30G
DNA 1: CAATCTGAATTCCGGTCTCCC
DNA 2: TGGTGGCTACGACGGGATT
B5: GAGUAAC (DNA:RNA)
RNA: B1 RNA with U26A, U27G, C28U, G29A, U30A
DNA 1: CAATCTGAATTCCGGTCTCCC
DNA 2: TGGTGGCTACGACGGGATT
B6: AUAGUCA (DNA:RNA)
RNA: B1 RNA with G25A, U27A, C28G, G29U, U30C, C31A
DNA 1: CAATCTGAATTCCGGTCTCCC
DNA 2: TGGTGGCTACGACGGGATT
B7: AGACUAU (DNA:RNA)
RNA: B1 RNA with G25A, U26G, U27A, G29U, U30A, C31U
DNA 1: CAATCTGAATTCCGGTCTCCC
DNA 2: TGGTGGCTACGACGGGATT
B8: UUACCGA (DNA:RNA)
RNA: B1 RNA with G25U, U27A, G29C, U30G, C31A
DNA 1: CAATCTGAATTCCGGTCTCCC
DNA 2: TGGTGGCTACGACGGGATT
B9: GUCCUUU (DNA:RNA)
RNA: B1 RNA with U27C, G29U, C31U
DNA 1: CAATCTGAATTCCGGTCTCCC
DNA 2: TGGTGGCTACGACGGGATT
B10: AUCAAAA (DNA:RNA)
RNA: B1 RNA with G25A, U27C, C28A, G29A, U30A, C31A
DNA 1: CAATCTGAATTCCGGTCTCCC
DNA 2: TGGTGGCTACGACGGGATT
B11: GAACCCU (DNA:RNA)
RNA: B1 RNA with U26A, U27A, G29C, U30C, C31U
DNA 1: CAATCTGAATTCCGGTCTCCC
DNA 2: TGGTGGCTACGACGGGATT
B12: GGGUCAC (DNA:RNA)
RNA: B1 RNA with U26G, U27G, C28U, G29C, U30A
DNA 1: CAATCTGAATTCCGGTCTCCC
DNA 2: TGGTGGCTACGACGGGATT
B13: UCGGUUG (DNA:RNA)
RNA: B1 RNA with G25U, U26C, U27G, C28G, G29U, C31G
DNA 1: CAATCTGAATTCCGGTCTCCC
DNA 2: TGGTGGCTACGACGGGATT
B14: GUUACGU (DNA:RNA)
RNA: B1 RNA with C28A, G29C, U30G, C31U
DNA 1: CAATCTGAATTCCGGTCTCCC
DNA 2: TGGTGGCTACGACGGGATT
B15: GCCUACU (DNA:RNA)
RNA: B1 RNA with U26C, U27C, C28U, G29A, U30C, C31U
DNA 1: CAATCTGAATTCCGGTCTCCC
DNA 2: TGGTGGCTACGACGGGATT
B16: CAGACGC (DNA:RNA)
RNA: B1 RNA with G25C, U26A, U27G, C28A, G29C, U30G
DNA 1: CAATCTGAATTCCGGTCTCCC
DNA 2: TGGTGGCTACGACGGGATT
B17: CAAAAAC (DNA:RNA)
RNA: B1 RNA with G25C, U26A, U27A, C28A, G29A, U30A
DNA 1: CAATCTGAATTCCGGTCTCCC
DNA 2: TGGTGGCTACGACGGGATT
B18: AAGCACA (DNA:RNA)
RNA: B1 RNA with G25A, U26A, U27G, G29A, U30C, C31A
DNA 1: CAATCTGAATTCCGGTCTCCC
DNA 2: TGGTGGCTACGACGGGATT
B19: UGUGUCG (DNA:RNA)
RNA: B1 RNA with G25U, U26G, C28G, G29U, U30C, C31G
DNA 1: CAATCTGAATTCCGGTCTCCC
DNA 2: TGGTGGCTACGACGGGATT
B20: ACACCCU (DNA:RNA)
RNA: B1 RNA with G25A, U26C, U27A, G29C, U30C, C31U
DNA 1: CAATCTGAATTCCGGTCTCCC
DNA 2: TGGTGGCTACGACGGGATT
B21: ACUUCCG (DNA:RNA)
RNA: B1 RNA with G25A, U26C, C28U, G29C, U30C, C31G
DNA 1: CAATCTGAATTCCGGTCTCCC
DNA 2: TGGTGGCTACGACGGGATT
B22: UCCGUCU (DNA:RNA)
RNA: GGGAGACCGGAAUUCAGAUUGUCCUCCGUCUUUAAAUCCCGUCGUAGCCACCA
DNA 1: CAATCTGAATTCCGGTCTCCC
DNA 2: TGGTGGCTACGACGGGATT
B23: CUCGAUG (DNA:RNA)
RNA: B1 RNA with G25C, U27C, C28G, G29A, C31G
DNA 1: CAATCTGAATTCCGGTCTCCC
DNA 2: TGGTGGCTACGACGGGATT
B24: AAUAGUC (DNA:RNA)
RNA: B1 RNA with G25A, U26A, C28A
DNA 1: CAATCTGAATTCCGGTCTCCC
DNA 2: TGGTGGCTACGACGGGATT
B25: UCAAACG (DNA:RNA)
RNA: B22 RNA with C27A, G28A, U29A, U31G
DNA 1: CAATCTGAATTCCGGTCTCCC
DNA 2: TGGTGGCTACGACGGGATT
B26: AAUGUUU (DNA:RNA)
RNA: B22 RNA with U25A, C26A, C27U, C30U
DNA 1: CAATCTGAATTCCGGTCTCCC
DNA 2: TGGTGGCTACGACGGGATT
B27: CGAUGCU (DNA:RNA)
RNA: B22 RNA with U25C, C26G, C27A, G28U, U29G
DNA 1: CAATCTGAATTCCGGTCTCCC
DNA 2: TGGTGGCTACGACGGGATT
B28: ACUUAGA (DNA:RNA)
RNA: B1 RNA with G25A, U26C, C28U, G29A, U30G, C31A
DNA 1: CAATCTGAATTCCGGTCTCCC
DNA 2: TGGTGGCTACGACGGGATT
B29: AAAUCCC (DNA:RNA)
RNA: B1 RNA with G25A, U26A, U27A, C28U, G29C, U30C
DNA 1: CAATCTGAATTCCGGTCTCCC
DNA 2: TGGTGGCTACGACGGGATT
B30: ACGUUAU (DNA:RNA)
RNA: B22 RNA with U25A, C27G, G28U, C30A
DNA 1: CAATCTGAATTCCGGTCTCCC
DNA 2: TGGTGGCTACGACGGGATT
B31: AAUAGCC (DNA:RNA)
RNA: B1 RNA with G25A, U26A, C28A, U30C
DNA 1: CAATCTGAATTCCGGTCTCCC
DNA 2: TGGTGGCTACGACGGGATT

The test has as its target T1, RBFOX1 RRM (Homo sapiens, UniProt Q9NWB1 109-208).
T1 sequence: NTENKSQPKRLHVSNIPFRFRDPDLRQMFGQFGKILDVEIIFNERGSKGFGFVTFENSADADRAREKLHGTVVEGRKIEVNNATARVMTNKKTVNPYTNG
As to the kind of experiment: EMSA; HiTS-Eq, 1 nM pool, 10 min; buffer printed only for the single-RNA assays: 10 mM Tris pH 7.5, 150 mM NaCl, 3.4 mM EDTA, 0.001% NP-40, 30 C. The conditions noted are these: tags: His6 N-terminal (pET28a); label: 5' 32P. Summed up:
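Purified wild-type or mutant RbFox RRM at increasing concentrations was equilibrated with 1 nM of 5′-radiolabelled RNA carrying 7 randomized nucleotides for 10 min in 50 µL. Unbound RNA was separated by 8% native PAGE and sequenced. Relative association constants came from read-count changes of each RNA species compared with the control reaction, normalised to the cognate motif.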
As to B1, the binding signal was 0.0209 KA relative to UGCAUGU.

On to B2, for which the binding signal was 0.00682 KA relative to UGCAUGU.

Turning to B3, the binding signal is 0.0204 KA relative to UGCAUGU.

Consider B4, for which the binding signal is 0.00297 KA relative to UGCAUGU.

Regarding B5, the binding signal is 0.00976 KA relative to UGCAUGU.

For the molecule B6, the binding signal was 0.00256 KA relative to UGCAUGU.

With B7, the binding signal is 0.0036 KA relative to UGCAUGU.

As to B8, the binding signal is 0.00925 KA relative to UGCAUGU.

Consider B9, for which the binding signal is 0.012 KA relative to UGCAUGU.

On to B10, for which the binding signal was 0.00197 KA relative to UGCAUGU.

As to B11, the binding signal is 0.00371 KA relative to UGCAUGU.

Regarding B12, the binding signal is 0.0219 KA relative to UGCAUGU.

As for B13, the binding signal is 0.0277 KA relative to UGCAUGU.

Take B14: the binding signal is 0.01 KA relative to UGCAUGU.

For the molecule B15, the binding signal was 0.00598 KA relative to UGCAUGU.

As to B16, the binding signal is 0.00366 KA relative to UGCAUGU.

With B17, the binding signal was 0.00139 KA relative to UGCAUGU.

B18: the binding signal was 0.0054 KA relative to UGCAUGU.

On to B19, for which the binding signal is 0.024 KA relative to UGCAUGU.

With B20, the binding signal is 0.00292 KA relative to UGCAUGU.

Regarding B21, the binding signal was 0.00599 KA relative to UGCAUGU.

For B22, the binding signal is 0.0154 KA relative to UGCAUGU.

Turning to B23, the binding signal is 0.0129 KA relative to UGCAUGU.

Consider B24, for which the binding signal is 0.00816 KA relative to UGCAUGU.

With B25, the binding signal is 0.00325 KA relative to UGCAUGU.

In the case of B26, the binding signal is 0.00815 KA relative to UGCAUGU.

Regarding B27, the binding signal was 0.0159 KA relative to UGCAUGU.

Take B28: the binding signal is 0.00869 KA relative to UGCAUGU.

Take B29: the binding signal was 0.000947 KA relative to UGCAUGU.

As for B30, the binding signal is 0.00327 KA relative to UGCAUGU.

With B31, the binding signal is 0.00402 KA relative to UGCAUGU.
